The supplement of paper PMC4723716
± gives the uncertainty stated by the source. Whole data set: some 9,900 compounds, median “viability index relative to DMSO control” near 1, cut for the lowest 2% near 0.85. The list shows a part of the results.

The molecules below were run on Plasmodium falciparum NF54 stage V gametocytes (assay: viability index relative to DMSO control (fraction); higher = less gametocyte killing). Conditions: 2.5 µM, library set: Broad Institute DOS, incubation time: 72 h.
Method in brief: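 P. falciparum NF54 stage V gametocytes in serum-free screening medium (0.75% gametocytemia, 1.25% hematocrit, 10 µl) were incubated with compound at 2.5 µM in 1,536-well plates for 72 hr at 37°C under low oxygen. Then 3 µl of 2.5 µM MitoTracker Red CMXRos plus 0.13% saponin was added for one to two hours. One field per well was imaged, 20–70 µm2 red particles were counted, and the viability index was the count divided by the plate mean of DMSO wells.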
`O=C(Nc1ccc(C(F)(F)F)cc1)N1[C@@H]2CNC[C@H]1[C@H]2c1ccc(-c2ccccc2F)cc1` was tested, and the viability index was 1.11 ± 0.1.
Work on `C[C@@H]1CCCCO[C@H](CN(C)Cc2ccc(C(=O)O)cc2)[C@H](C)CN([C@@H](C)CO)C(=O)c2cc(N(C)C)ccc2O1` yielded a viability index of 1.16 ± 0.032.
`CCC(=O)Nc1ccc2c(c1)C(=O)N(C)C[C@H](OC)[C@@H](C)CN(Cc1nccs1)[C@@H](C)CO2` showed a viability index of 1.13 ± 0.022.
`C/C=C/c1ccc([C@@H]2[C@@H](CO)N3C(=O)CN(C(=O)c4ccncc4)C[C@@H]23)cc1` gave a viability index of 1.08 ± 0.011.
`CCCN1C[C@H](C)[C@H](OC)CN(C)C(=O)c2cc(NS(=O)(=O)c3ccccc3)ccc2OC[C@@H]1C` showed a viability index of 0.99 ± 0.002.
With `O=C(C[C@@H]1CC[C@H]2[C@@H](COC[C@@H](O)CN2C(=O)Cc2ccccc2)O1)NC1Cc2ccccc2C1` the viability index was 1.04 ± 0.059.
Molecule `O=C(C[C@H]1CC[C@H]2[C@@H](COC[C@@H](O)CN2CCc2ccccc2)O1)NCCCN1CCOCC1` has a viability index of 1.03 ± 0.12.
For `C[C@H](CO)N1C[C@H](C)[C@@H](CN(C)C(=O)Cc2cccnc2)Oc2cc(C#Cc3ccccc3F)ccc2S1(=O)=O`, the viability index was 0.993 ± 0.065.
For `C[C@@H]1CN([C@H](C)CO)C(=O)c2cc(N(C)C)ccc2O[C@@H]1CN(C)Cc1ccc(Oc2ccccc2)cc1`, the viability index was 1.05 ± 0.025.
`C[C@@H]1CN([C@@H](C)CO)C(=O)c2cc(N(C)C)ccc2O[C@@H](C)CCCCO[C@H]1CN(C)S(=O)(=O)c1cn(C)cn1` showed a viability index of 0.99 ± 0.031.
Work on `COc1cccc(-c2ccc3c(c2)O[C@H](CN(C)Cc2cccnc2)[C@@H](C)CN([C@@H](C)CO)S3(=O)=O)c1` yielded a viability index of 0.975 ± 0.052.
In the case of `COc1cccc(NC(=O)N[C@H]2CC[C@@H](CC(=O)N3CCN(C)CC3)O[C@@H]2CO)c1`, the viability index is reported as 1.13 ± 0.031.
`Cc1noc(C)c1S(=O)(=O)N(C)C[C@H]1OCc2cn(nn2)CCCC(=O)N([C@@H](C)CO)C[C@@H]1C` showed a viability index of 1.1 ± 0.045.
Work on `C[C@H](CO)N1C[C@H](C)[C@H](CN(C)C(=O)c2ccccc2)Oc2cc(-c3cccc(C#N)c3)ccc2S1(=O)=O` yielded a viability index of 1.08 ± 0.012.
For `CO[C@H]1CN(C)C(=O)c2ccc(NC(=O)c3ccno3)cc2OC[C@H](C)N(S(C)(=O)=O)C[C@H]1C`, the viability index was 1.094 ± 0.0085.
For `C[C@H](CO)N1C[C@H](C)[C@H](CN(C)S(=O)(=O)c2cn(C)cn2)Oc2c(NC(=O)Nc3ccc(C(F)(F)F)cc3)cccc2C1=O`, the viability index was 1.0734 ± 0.001.
`O=C(C[C@@H]1CC[C@@H]2[C@H](COC[C@@H](O)CN2C(=O)c2cnccn2)O1)N1CCN(c2ccccc2)CC1` gave a viability index of 1.03 ± 0.014.
With `COc1ccc2c3c([C@@H](CO)NC[C@]33CN(C3)S(=O)(=O)c3ccc(C)cc3)n(C)c2c1` the viability index was 1.01 ± 0.048.
In the case of `N#C[C@H]1[C@@H](c2ccccc2)[C@H](CO)N1C(=O)Nc1cccc(F)c1`, the viability index is reported as 1.18 ± 0.045.
With `COc1ccc(-c2cn(CC[C@@H]3CC[C@@H](NC(=O)c4cnccn4)[C@H](CO)O3)nn2)cc1` the viability index was 1.13 ± 0.092.
`CC(C)CC#Cc1ccc([C@@H]2[C@H](CO)N3CCCCN(C(=O)Nc4ccccc4)C[C@@H]23)cc1` gave a viability index of 0.877 ± 0.053.
Work on `O=C1NCCOCc2cn(nn2)CC[C@H]1Cc1ccc(F)cc1` yielded a viability index of 1.01 ± 0.034.
`CCCNC(=O)Nc1ccc2c(c1)C(=O)N(C)C[C@H](OC)[C@H](C)CN(C)[C@@H](C)CO2` gave a viability index of 1.13 ± 0.07.
With `O=C(c1ccccn1)N1CC[C@@H]2[C@H]1c1cc(Br)ccc1N[C@@H]2CO` the viability index was 1.07 ± 0.0095.
`Cc1ccc(S(=O)(=O)Nc2ccc3c(c2)C(=O)N([C@@H](C)CO)C[C@H](C)[C@@H](CN(C)S(=O)(=O)c2cccs2)OCCCC[C@@H](C)O3)cc1` was tested, and the viability index was 1.12 ± 0.013.
Molecule `CO[C@@H]1CN(C)C(=O)c2cc(NC(=O)c3ccccc3F)ccc2OC[C@H](C)N(CC2CCOCC2)C[C@H]1C` has a viability index of 1.0033 ± 0.001.
`CN1CCN(C(=O)C[C@@H]2CC[C@H]3[C@@H](COC[C@H](O)CN3C(=O)c3ccccc3F)O2)CC1` showed a viability index of 1.06 ± 0.037.
In the case of `CO[C@@H](C(=O)N(C)C[C@@H]1OCc2ccccc2-c2ccccc2C(=O)N([C@H](C)CO)C[C@@H]1C)c1ccccc1`, the viability index is reported as 0.993 ± 0.063.
Molecule `CCS(=O)(=O)Nc1ccc2c(c1)C(=O)N(C)[C@@H]1CC[C@@H](CC(=O)N[C@@H]3CCN(Cc4ccccc4)C3)O[C@H]1CO2` has a viability index of 1.1 ± 0.056.
Molecule `CO[C@@H](CN(C)C(=O)Nc1ccc(Cl)cc1)[C@H](C)CN(Cc1ccccc1Cl)[C@@H](C)CO` has a viability index of 1.01 ± 0.11.
In the case of `N#C[C@@H]1[C@H](c2ccc(-c3cccnc3)cc2)[C@H](CO)N1C(=O)C1CCOCC1`, the viability index is reported as 1.077 ± 0.0064.
In the case of `O=C(C[C@@H]1C=C[C@@H](NS(=O)(=O)c2ccccc2)[C@@H](CO)O1)NCCN1CCCCC1`, the viability index is reported as 1.08 ± 0.094.
Work on `Cc1ccccc1-c1cnc2c(c1)C(=O)N([C@H](C)CO)C[C@@H](C)[C@@H](CN(C)Cc1ccccc1F)O2` yielded a viability index of 1.002 ± 0.0018.
In the case of `C[C@@H]1CN([C@H](C)CO)C(=O)c2cc(NC(=O)C3CCCCC3)ccc2O[C@@H]1CN(C)C(=O)Nc1ccc(C(F)(F)F)cc1`, the viability index is reported as 1.06 ± 0.068.
With `Cc1cc(C(=O)Nc2ccc3c(c2)C(=O)N(C)[C@@H]2CC[C@@H](CC(=O)NCc4ccc(-c5ccccc5)cc4)O[C@@H]2CO3)no1` the viability index was 1.1 ± 0.17.
`CCC(=O)N1[C@H](CO)[C@@H]2c3ccccc3N(S(=O)(=O)c3ccc(F)cc3)C[C@@H]21` was tested, and the viability index was 1.01 ± 0.08.
`CCC(=O)N1C[C@H]2[C@@H](c3ccccc31)[C@H](CO)N2Cc1ccc(F)cc1` showed a viability index of 1.07 ± 0.1.
Molecule `CCCC(=O)N1C[C@]2(CN(Cc3nccs3)C2)c2c([nH]c3cc(OC)ccc23)[C@@H]1CO` has a viability index of 1 ± 0.024.
Molecule `CN(C)C(=O)c1ccc(-c2ccc([C@@H]3[C@@H](CO)N4C(=O)CN(C(=O)CC5CC5)C[C@H]34)cc2)cc1` has a viability index of 1.076 ± 0.0019.
With `O=C1N[C@H](c2ccccc2)COCn2nncc2CC[C@H]1Cc1ccccc1` the viability index was 1.05 ± 0.036.
Work on `N#Cc1cccc(-c2ccc([C@H]3[C@H]4CNC[C@@H]3N4S(=O)(=O)c3ccc(F)cc3)cc2)c1` yielded a viability index of 0.993 ± 0.14.
For `C[C@@H]1CCCCO[C@H](CN(C)Cc2ccc3c(c2)OCO3)[C@H](C)CN([C@H](C)CO)C(=O)c2cc(NS(=O)(=O)c3cn(C)cn3)ccc2O1`, the viability index was 1.054 ± 0.0031.
Molecule `Cc1noc(C)c1NC(=O)N1C[C@H](O)COC[C@@H]2O[C@H](CC(=O)N[C@@H]3CCN(Cc4ccccc4)C3)CC[C@H]21` has a viability index of 1.06 ± 0.093.
For `C[C@H](CO)N1C[C@H](C)[C@H](CN(C)C(=O)Nc2ccccc2C(F)(F)F)OCc2cnnn2CCCC1=O`, the viability index was 1.03 ± 0.014.
`CN(C)C(=O)c1cccc(-c2ccc([C@@H]3[C@H]4CN(C(=O)C5CCC5)CC(=O)N4[C@H]3CO)cc2)c1` gave a viability index of 0.9976 ± 0.0084.
`CO[C@@H](CN(C)C(=O)c1ccccc1F)[C@@H](C)CN([C@@H](C)CO)S(=O)(=O)c1ccc(F)cc1` was tested, and the viability index was 1.06 ± 0.088.
In the case of `COc1ccc(S(=O)(=O)N(C)C[C@H]2Oc3ccc(NC(=O)Cc4cn(C)c5ccccc45)cc3C(=O)N([C@H](C)CO)C[C@H]2C)cc1`, the viability index is reported as 1.01 ± 0.027.
In the case of `COc1ccc2c3c([C@H](CO)N(CC4CC4)C[C@]33CN(C3)C(=O)Nc3ccc(F)cc3F)n(C)c2c1`, the viability index is reported as 0.957 ± 0.025.
Work on `C[C@H](CO)N1C[C@H](C)[C@H](CN(C)S(=O)(=O)c2cccs2)Oc2ncc(-c3cc4ccccc4o3)cc2C1=O` yielded a viability index of 0.891 ± 0.12.
Molecule `O=C(C[C@@H]1CC[C@H]2[C@@H](COC[C@H](O)CN2C(=O)Nc2ccc(Cl)cc2)O1)NCC1CCCCC1` has a viability index of 1.08 ± 0.072.
`CCS(=O)(=O)N1CC(=O)N2[C@H](CO)[C@@H](c3ccc(-c4cccc(F)c4)cc3)[C@H]2C1` showed a viability index of 1.06 ± 0.056.
For `C[C@H](CO)N1C[C@H](C)[C@@H](CN(C)CC2CCCCC2)OCCCC[C@H](C)Oc2ccc(NS(C)(=O)=O)cc2C1=O`, the viability index was 0.976 ± 0.089.
For `C[C@H]1CN([C@@H](C)CO)C(=O)CCCn2nncc2CO[C@@H]1CN(C)S(=O)(=O)c1cn(C)cn1`, the viability index was 1.055 ± 0.006.
In the case of `O=C(Nc1ccc(F)cc1)N1C[C@H]2[C@@H](c3ccccc31)[C@H](CO)N2Cc1ccccc1Cl`, the viability index is reported as 1.07 ± 0.026.
`CS(=O)(=O)N1CC(=O)N2[C@H](C1)[C@@H](c1ccc(C#Cc3ccc(F)cc3)cc1)[C@@H]2CO` gave a viability index of 0.9545 ± 0.0077.
Work on `C[C@@H]1CN([C@@H](C)CO)C(=O)c2cc(-c3cccc(C#N)c3)cnc2O[C@H]1CN(C)C(=O)C1CCOCC1` yielded a viability index of 0.983 ± 0.016.
Work on `CN(C)CCCNC(=O)[C@@H]1[C@@H](CO)[C@@H]2Cn3c(ccc(-c4cccnc4)c3=O)[C@H]1N2C(=O)CC1CC1` yielded a viability index of 1.038 ± 0.0047.
In the case of `O=C(C[C@H]1C[C@@H]2c3cc(NC(=O)Nc4ccccc4F)ccc3O[C@@H]2[C@@H](CO)O1)NCc1ccccn1`, the viability index is reported as 0.991 ± 0.041.
Work on `C[C@@H]1CN([C@H](C)CO)C(=O)CCCn2nncc2CO[C@H]1CN(C)S(=O)(=O)c1ccc(Oc2ccccc2)nc1` yielded a viability index of 1.05 ± 0.032.
With `C[C@H]1CN([C@@H](C)CO)S(=O)(=O)c2ccc(C#Cc3cccc(F)c3)cc2O[C@@H]1CN(C)S(=O)(=O)c1cn(C)cn1` the viability index was 0.985 ± 0.049.
Molecule `COc1ccc(S(=O)(=O)N(C)C[C@@H]2Oc3ccc(NC(=O)Nc4ccc(C(F)(F)F)cc4)cc3C(=O)N([C@H](C)CO)C[C@H]2C)cc1` has a viability index of 0.957 ± 0.08.
`C[C@H]1CCCCO[C@H](CN(C)S(=O)(=O)c2cn(C)cn2)[C@@H](C)CN([C@@H](C)CO)C(=O)c2cc(NC(=O)Nc3cccc4ccccc34)ccc2O1` gave a viability index of 1 ± 0.13.
`N#Cc1ccc(-c2ccc([C@H]3[C@@H]4CN(S(=O)(=O)c5ccc(F)cc5)C[C@H]3N4)cc2)cc1` was tested, and the viability index was 0.977 ± 0.013.
`CC(=O)N1[C@@H](CO)[C@H](c2ccccc2)[C@@H]1CN(C)S(=O)(=O)c1ccccc1` gave a viability index of 1.01 ± 0.019.
With `O=C(Nc1ccc(F)cc1)N1CC(=O)N2[C@H](C1)[C@H](c1ccc(C3=CCCC3)cc1)[C@@H]2CO` the viability index was 1.06 ± 0.081.
For `N#C[C@@H]1[C@@H](c2ccccc2)[C@H](CO)N1C(=O)c1ccc2c(c1)OCO2`, the viability index was 1.09 ± 0.028.
Work on `COc1ccc2c3c([C@H](CO)NC[C@]33CCN(CC3)C(=O)Nc3ccc4OCOc4c3)n(C)c2c1` yielded a viability index of 1 ± 0.034.
`Cc1ccccc1S(=O)(=O)Nc1ccc2c(c1)C(=O)N(C)[C@@H]1CC[C@H](CC(=O)O)O[C@@H]1CO2` showed a viability index of 1.01 ± 0.033.
With `COc1ccccc1CNC(=O)C[C@H]1CC[C@H]2[C@@H](COC[C@H](O)CN2Cc2ccc3c(c2)OCO3)O1` the viability index was 1.0893 ± 0.001.
